# Among all 270,000 compounds or so, about 620 (0.23%) were called active. Inconclusive results, whose numbers are uncertain, are shown with a selection of clear calls. The call rests on the fitted dose curve; in most records, active means well fitted inhibition curve with a large enough effect in the polarisation, with a control signal flat (not every such curve was filed as active); inconclusive means small, poorly fitted or top-dose-only effect, or effect the other way, or a change in a side signal; inactive means no such curve, though single readings can be large or run the other way; the % refers to the polarisation. Potencies beside an inconclusive call are fits to weak or partial responses and may not hold up. “Side channel” marks fits to a control or component signal instead of the main read-out.
# Target: Menin (Homo sapiens) (UniProt O00255)
# Sequence of UniProt O00255 (O00255 whole entry, looked up): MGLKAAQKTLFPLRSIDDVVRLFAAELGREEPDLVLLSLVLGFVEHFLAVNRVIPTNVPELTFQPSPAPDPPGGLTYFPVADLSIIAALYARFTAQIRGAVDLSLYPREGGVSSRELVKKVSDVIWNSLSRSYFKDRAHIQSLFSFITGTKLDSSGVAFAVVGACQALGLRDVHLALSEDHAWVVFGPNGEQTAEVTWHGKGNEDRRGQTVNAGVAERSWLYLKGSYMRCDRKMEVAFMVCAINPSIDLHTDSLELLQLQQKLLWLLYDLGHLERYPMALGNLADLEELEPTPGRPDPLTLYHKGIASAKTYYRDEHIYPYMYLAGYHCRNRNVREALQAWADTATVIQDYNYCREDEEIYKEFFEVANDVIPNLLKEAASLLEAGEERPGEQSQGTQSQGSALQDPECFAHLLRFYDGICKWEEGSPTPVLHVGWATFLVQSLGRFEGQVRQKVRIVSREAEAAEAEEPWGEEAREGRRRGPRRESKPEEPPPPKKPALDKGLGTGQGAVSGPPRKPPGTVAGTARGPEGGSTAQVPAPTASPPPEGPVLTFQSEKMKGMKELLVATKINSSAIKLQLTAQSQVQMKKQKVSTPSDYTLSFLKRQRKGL
# Assay: qHTS Assay for Inhibitors Targeting the Menin-MLL Interaction in MLL Related Leukemias: Competition With Texas Red Labeled MLL-derived Mutant Peptide
# Conditions: fluorescence polarization; series mostly up to 61.6 µM
# Potency means the concentration at half of the fitted maximal effect; tags describe the fitted curve by direction and shape or compound fluorescence and quenching.
row,SMILES,Potency
1,CCC(C)(C)c1ccc(OCCCC[n+]2ccccc2)c(C(C)(C)CC)c1,"inconclusive: 3.55 µM [fluorescent, side channel, partial curve]"
2,COc1cc2nc(/C=C/c3ccc(N(C)C)cc3)sc2cc1SC,"inconclusive: 8.91 µM [quencher, side channel, partial curve, poor fit]"
3,O=C(Nc1cccc(Cl)c1)OCCOc1ccccc1,"inconclusive: 14.1 µM [quencher, side channel, partial curve]"
4,COC(=O)C(C(=O)OC)=C(/C=C/C=C/N(C)C)N(C)C,"inconclusive: 5.62 µM [inhibitor, partial curve]"
5,O=C(COc1ccc(-n2cnnn2)cc1)Nc1ccccc1Cl,"inconclusive: 20 µM [quencher, side channel, single point]"
6,CCOc1ccc(CCNC(=O)Cn2c(=O)c3cccn3c3cccnc32)cc1,inactive
7,O=C(CNC(=O)Cc1ccccc1)NCC(=O)OCc1ccccc1,"inconclusive: 8.91 µM [inhibitor, single point]"
8,CCOc1ccccc1N=CC1=C(O)CC(c2ccccc2)CC1=O (stereo not drawn),"inconclusive: 8.91 µM [fluorescent, side channel, full curve]"
9,NC(=O)c1sc2nc(-c3cccs3)ccc2c1N,"inconclusive: 35.5 µM [quencher, side channel, partial curve]"
10,CC1(C)C(=O)N(CCN2CCC(C(=O)c3ccc(F)cc3)CC2)c2ccccc21,"inconclusive: 12.6 µM [fluorescent, side channel, partial curve]"
11,N#Cc1ncc(C(F)(F)F)cc1Sc1ccc(N)cc1,"inconclusive: 28.2 µM [quencher, side channel, single point]"
12,O=C1NC(=O)c2cc(NC(=O)C3CCCO3)ccc21 (stereo not drawn),inactive
13,CNC(=S)N1CCN(c2nc(-c3cccc(OC)c3)cs2)CC1,"inconclusive: 12.6 µM [quencher, side channel, partial curve]"
14,Cc1cc(=O)[nH]c(Nc2ccc(N(C)C)cc2)n1,inactive
15,Cc1cc(NC(=O)c2cc3ncc(Br)cn3n2)no1,"inconclusive: 15.8 µM [inhibitor, partial curve, poor fit]"
16,COc1cc(C(=O)Nc2c(C(=O)O)[nH]c3ccc(C)cc23)cc(OC)c1OC,"inconclusive: 11.2 µM [quencher, side channel, partial curve]"
17,O=C(NCc1cccc(C(F)(F)F)c1)c1cc(Cl)cc(Cl)c1,"inconclusive: 28.2 µM [inhibitor, single point]"
18,O=C1NC(=O)/C(=C/c2ccccc2Oc2ccc(Cl)cc2)S1,"inconclusive: 25.1 µM [inhibitor, single point]"
19,Cc1cnc(CNc2ncnc3ccc(-c4ccc(C(=O)N(C)C)cc4)cc23)cn1,"inconclusive: 39.8 µM [inhibitor, partial curve]"

row,SMILES,Potency
1,Cc1ccc2c(c1)Oc1ccc(NC(=O)CCl)cc1C(=O)N2,inactive
2,O=C(Nc1cccc(-c2cn3ccccc3n2)c1)c1ccccc1,inactive
3,O=C(O)c1cccc(CN2C(=O)c3ccccc3C2=O)c1,inactive
4,COc1ccc(-c2cc(C(=O)Nc3cc(Cl)ccc3OC)no2)cc1,"inconclusive: 39.8 µM [fluorescent, side channel, single point]"
5,Cc1ccc(-c2cc(-c3cccs3)[nH]n2)c(O)c1,"inconclusive: 20 µM [quencher, side channel, partial curve]"
6,CC1=C(C(=O)N2CCOCC2)C(c2cc(C)cs2)NC(=O)N1 (stereo not drawn),"inconclusive: 31.6 µM [fluorescent, side channel, single point]"
7,Cc1cc2nc(-c3ccc(SCc4ccc(C(=O)O)cc4)nc3)[nH]c2cc1C,"inconclusive: 28.2 µM [quencher, side channel, partial curve]"
8,CC1(C)CC(=O)C(=Cc2cn(-c3ccccc3)nc2-c2ccc(Cl)cc2)C(=O)C1,"inconclusive: 2.51 µM [quencher, side channel, full curve, poor fit]"
9,COc1cn(-c2ccccc2)nc1C(=O)Nc1ccccc1,"inconclusive: 3.98 µM [inhibitor, single point]"
10,O=C(COc1ccc(Cl)cc1Cl)Nn1c(=S)[nH]c2ncccc2c1=O,"inconclusive: 31.6 µM [quencher, side channel, single point]"
11,Cc1ccc(C2CC(=O)Oc3cc4c(cc32)OCO4)cc1 (stereo not drawn),"inconclusive: 31.6 µM [quencher, side channel, single point]"
12,COc1ccc(/C(C)=N/OC/C(O)=C(\C#N)c2nc3ccccc3[nH]2)cc1,"inconclusive: 1.26 µM [quencher, side channel, full curve, poor fit]"
13,O=C(CCc1ccccc1)NC(c1cccs1)c1cc(Cl)c2cccnc2c1O (stereo not drawn),"inconclusive: 7.94 µM [quencher, side channel, full curve]"
14,O=[N+]([O-])c1ccc(/C=N/n2cnc3ccccc32)s1,"inconclusive: 25.1 µM [quencher, side channel, partial curve]"
15,COC(=O)CCC/C=C1/SCC(NC(=O)c2ccccc2)C1=O (stereo not drawn),"inconclusive: 28.2 µM [quencher, side channel, single point]"
16,O=C(CN(c1ccccc1)S(=O)(=O)c1ccccc1)Nc1ccc(F)cc1,"inconclusive: 39.8 µM [inhibitor, single point]"
17,C=CC[C@H]1Cc2c(cccc2[N+](=O)[O-])[C@H](CC=C)N1,"inconclusive: 28.2 µM [inhibitor, partial curve]"
18,O=C(Nc1ccccc1O)c1cccc(S(=O)(=O)N2CCOCC2)c1,"inconclusive: 7.94 µM [fluorescent, side channel, partial curve]"
19,COc1cccc(C2C(C(=O)c3cccs3)=C(O)C(=O)N2c2cc(C)on2)c1 (stereo not drawn),"inconclusive: 6.31 µM [quencher, side channel, partial curve]"
